Experimental data taken from paper PMC12136788.
The other results are listed elsewhere or left out.

B1: chr14:39095999:39096113:-|CDS|ENSG00000100934|unk|FALSE|bound_elsewhere (ssRNA)
RNA: GGGAGUUCUACAGUCCGACGAUCACAAUGACAACCUAUUUGGAAUUCAUUCAACAAAAUGAAGAACGAGAUGGAGUCCGAUUUAGUUGGAAUGUUUGGCCAUCAAGUCGACUGGAAGCUACAAGAAUGGUUGUUCCUGUGGCACAACAGAGGAUUGAGCAUCA
B2: chr1:45660537:45660647:-|5pUTR|ENSG00000159592|unk|FALSE|unique (ssRNA)
RNA: GGGAGUUCUACAGUCCGACGAUCAUUUUUGAUCUAUUACCUUGAUGACAUUAUUUGUCCACACUUGAGCCCAUCUGUCUUUCUAGCUAUGACCUUGUUAUGAACAGUAUUUGCACUCGGUGCAAAUAUCCAUGUCUUACCUAACAACAGAGGAUUGAGCAUCA
B3: ENSG00000107863:be:win_51|CDS|ENSG00000107863|bound_else_gene|NA|bound_elsewhere_windowed (ssRNA)
RNA: GGGAGUUCUACAGUCCGACGAUCCAAGGCCUGCGAGGUCUCAAAAAAUAAAGAUGGAAAAGAACAAAGUGAAACUGUAUCACUGUCUGAAGAUGAAACAUUCUCCUGGCCAGGUCCCAAAACAGUUACGUUGAAAAGAACAUCCAACAGAGGAUUGAGCAUCA
B4: chr3:68976711:68977116:-|CDS|ENSG00000163378|control|control|control (ssRNA)
RNA: GGGAGUUCUACAGUCCGACGAUCCUUUUUAGGAAUACCAAAGUUUUCAACUUUUUCAGCUUUAGAAUUUGUAAAUAUUUUUGUAGAAUAUCAUAUGACUGUAAUUCCAGAGUGUUCCAACUUGUUUAUGAUAUAUUUGGGUAACAACAGAGGAUUGAGCAUCA
B5: chr13:108229279:108229380:+|CDS|ENSG00000139826|unk|total|mutant (ssRNA)
RNA: GGGAGUUCUACAGUCCGACGAUCGCUAACCGCCUUGGCUUCAUGGUCUUGGGCUCUCUGCCGUAUUUCUCUUUUACCUUUAACCGUGACUUUUCAUCUGUAUGGAGGCAUUAUCUUACUUUUGUUAAUAUUCAUAUCAACCGCCAACAGAGGAUUGAGCAUCA
B6: chr12:42456824:42456925:-|3pUTR|ENSG00000139174|unk|FALSE|unique (ssRNA)
RNA: GGGAGUUCUACAGUCCGACGAUCAUGAGCCACUGCGUCUGGCAAUAAUGUAACUUUGAAGCUUAAAAAUUAAUCCCAGUUUGUAGCAAUAACAGAAGACUAUCUACAACGGAAGAAAGAAGCAACUGCCUUACAGUUCUGUAACAACAGAGGAUUGAGCAUCA

These binders were tested against MSI1 full-length (mouse, UniProt Q61474 1-362) (assay: nsRBNS (natural sequence RNA bind-n-seq); RBNS binding buffer (assumed for nsRBNS): 25 mM Tris pH 7.5, 150 mM KCl, 3 mM MgCl2, 0.01% Triton X-100, 500 ug/ml BSA, 20 U/ml SUPERase-In, 4 C; UNK is unkempt and MSI1 is Musashi-1; names of the RNAs are library labels; protein concentration not given here; high values mean tight binding).
Chain of UniProt Q61474 (Q61474 whole entry): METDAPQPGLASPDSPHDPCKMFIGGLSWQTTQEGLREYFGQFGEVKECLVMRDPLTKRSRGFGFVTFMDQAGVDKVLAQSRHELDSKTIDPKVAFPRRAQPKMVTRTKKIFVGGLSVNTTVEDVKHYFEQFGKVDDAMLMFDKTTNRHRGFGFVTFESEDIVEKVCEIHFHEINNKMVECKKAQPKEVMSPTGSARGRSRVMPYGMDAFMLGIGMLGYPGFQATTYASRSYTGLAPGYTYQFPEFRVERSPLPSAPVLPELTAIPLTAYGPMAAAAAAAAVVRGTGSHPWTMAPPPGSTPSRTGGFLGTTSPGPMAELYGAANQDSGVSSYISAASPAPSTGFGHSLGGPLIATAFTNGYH

Compared with B1, B2 is higher in binding signal: 0.208 enrichment R for the first, 0.393 enrichment R for the second.

Compared with B3, B4 is higher in binding signal: 0.349 enrichment R for the first, 5.23 enrichment R for the second.

Compared with B5, B6 is lower in binding signal: 0.719 enrichment R for the first, 0.548 enrichment R for the second.
